Data: the supplement of paper PMC4967469

Compound: O=C1NC(=O)/C(=C\c2ccc3nccnc3c2)S1 [AS605240]
Assay: Viability of human cancer cell lines after 72 h of drug (GDSC screen)
Conditions: top dose inferred
Method: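 Human cancer cell lines in 384-well plates, medium with 10% serum, drug for 72 h over a 256-fold dose range (nine 2-fold or five 4-fold steps up to the top dose). Adherent lines were fixed and stained with the nucleic acid dye Syto60, suspension lines read with resazurin; signal relative to control wells, capped at 0 and 100%. One two-parameter sigmoid per drug and line, fitted in a mixed model over all curves with the slope shared within a line.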

Q: For “COLO-668 (small cell lung carcinoma, adherent, top dose 20 µM)”, which AUC is on record?
A: 0.68

Q: And the IC50?
A: 3.99 µM

Q: Which results are given for “GOTO (neuroblastoma, adherent, top dose 20 µM)”?
A: AUC: 0.975; IC50: > 20 µM

Q: Which AUC does the source give for “SK-ES-1 (Ewing sarcoma, semi-adherent, top dose 20 µM)” here?
A: 0.849

Q: And the IC50?
A: 16.6 µM

Q: Which results are given for “HCC1187 (breast, suspension, top dose 20 µM)”?
A: AUC: 0.831; IC50: 11.8 µM

Q: “NCI-H720 (lung carcinoid, suspension, top dose 20 µM)” was tested. Which AUC did it give?
A: 0.971

Q: What about the IC50 of the same cell line?
A: > 20 µM

Q: “MC-CAR (haematopoietic neoplasm, suspension, top dose 20 µM)” was tested. Which AUC did it give?
A: 0.553

Q: What about the IC50 of the same cell line?
A: 1.72 µM

Q: What does the source list for “ECC10 (stomach, suspension, top dose 20 µM)”?
A: AUC: 0.929; IC50: > 20 µM

Q: Which results are given for “YAPC (pancreas, adherent, top dose 20 µM)”?
A: AUC: 0.948; IC50: > 20 µM

Q: Which AUC does the source give for “NCI-H292 (lung adenocarcinoma, adherent, top dose 20 µM)” here?
A: 0.772

Q: And the IC50?
A: 9.38 µM

Q: Which AUC does the source give for “UACC-62 (melanoma, adherent, top dose 20 µM)” here?
A: 0.691

Q: What about the IC50 of the same cell line?
A: 4.26 µM

Q: Which results are given for “ABC-1 (lung adenocarcinoma, adherent, top dose 20 µM)”?
A: AUC: 0.717; IC50: 5.91 µM

Q: What does the source list for “H2818 (mesothelioma, adherent, top dose 20 µM)”?
A: AUC: 0.976; IC50: > 20 µM

Q: For “NU-DUL-1 (B-cell lymphoma, suspension, top dose 20 µM)”, which AUC is on record?
A: 0.712

Q: What about the IC50 of the same cell line?
A: 4.3 µM

Q: For “TE-6 (oesophagus, adherent, top dose 20 µM)”, which AUC is on record?
A: 0.965

Q: And the IC50?
A: > 20 µM

Q: With “CAPAN-1 (pancreas, adherent, top dose 20 µM)” as the cell line, how does the AUC read?
A: 0.841

Q: What about the IC50 of the same cell line?
A: 16.2 µM

Q: For “NCI-H23 (lung adenocarcinoma, adherent, top dose 20 µM)”, which AUC is on record?
A: 0.609

Q: What about the IC50 of the same cell line?
A: 2.48 µM

Q: “SUIT-2 (pancreas, adherent, top dose 20 µM)” was tested. Which AUC did it give?
A: 0.521

Q: And the IC50?
A: 1.43 µM

Q: How did the AUC turn out when “NCI-H196 (small cell lung carcinoma, adherent, top dose 20 µM)” was run?
A: 0.479

Q: And the IC50?
A: 1.09 µM

Q: With “JHU-022 (head and neck, adherent, top dose 20 µM)” as the cell line, how does the AUC read?
A: 0.895

Q: And the IC50?
A: > 20 µM

Q: Which AUC does the source give for “HOP-62 (lung adenocarcinoma, adherent, top dose 20 µM)” here?
A: 0.982

Q: And the IC50?
A: > 20 µM

Q: With “SF295 (glioma, adherent, top dose 20 µM)” as the cell line, how does the AUC read?
A: 0.925

Q: What about the IC50 of the same cell line?
A: > 20 µM

Q: Which results are given for “TE-5 (oesophagus, adherent, top dose 20 µM)”?
A: AUC: 0.96; IC50: > 20 µM

Q: Which results are given for “KON (head and neck, adherent, top dose 20 µM)”?
A: AUC: 0.981; IC50: > 20 µM

Q: “SK-GT-4 (oesophagus, adherent, top dose 20 µM)” was tested. Which AUC did it give?
A: 0.824

Q: And the IC50?
A: 15.9 µM

Q: Which AUC does the source give for “MPP-89 (mesothelioma, adherent, top dose 20 µM)” here?
A: 0.962

Q: What about the IC50 of the same cell line?
A: > 20 µM

Q: With “SNU-423 (liver, adherent, top dose 20 µM)” as the cell line, how does the AUC read?
A: 0.69

Q: What about the IC50 of the same cell line?
A: 4.72 µM

Q: For “VMRC-RCW (kidney, adherent, top dose 20 µM)”, which AUC is on record?
A: 0.932

Q: And the IC50?
A: > 20 µM

Q: How did the AUC turn out when “NCI-H28 (mesothelioma, adherent, top dose 20 µM)” was run?
A: 0.975

Q: What about the IC50 of the same cell line?
A: > 20 µM

Q: Which results are given for “BCPAP (thyroid, adherent, top dose 20 µM)”?
A: AUC: 0.973; IC50: > 20 µM

Q: Which results are given for “L-540 (Hodgkin lymphoma, suspension, top dose 20 µM)”?
A: AUC: 0.901; IC50: > 20 µM

Q: Which results are given for “NCI-H1792 (lung adenocarcinoma, adherent, top dose 20 µM)”?
A: AUC: 0.242; IC50: 0.248 µM

Q: Which results are given for “RVH-421 (melanoma, adherent, top dose 20 µM)”?
A: AUC: 0.661; IC50: 4.13 µM

Q: “ONS-76 (medulloblastoma, adherent, top dose 20 µM)” was tested. Which AUC did it give?
A: 0.55

Q: What about the IC50 of the same cell line?
A: 1.73 µM

Q: How did the AUC turn out when “HT-29 (large intestine, adherent, top dose 20 µM)” was run?
A: 0.466

Q: And the IC50?
A: 1.01 µM

Q: How did the AUC turn out when “SAT (head and neck, adherent, top dose 20 µM)” was run?
A: 0.772

Q: What about the IC50 of the same cell line?
A: 12.4 µM

Q: How did the AUC turn out when “ES6 (Ewing sarcoma, adherent, top dose 20 µM)” was run?
A: 0.85

Q: And the IC50?
A: > 20 µM

Q: Which results are given for “MY-M12 (leukaemia, suspension, top dose 20 µM)”?
A: AUC: 0.662; IC50: 3.75 µM

Q: With “HCC1419 (breast, adherent, top dose 20 µM)” as the cell line, how does the AUC read?
A: 0.883

Q: What about the IC50 of the same cell line?
A: > 20 µM

Q: With “M14 (melanoma, adherent, top dose 20 µM)” as the cell line, how does the AUC read?
A: 0.797

Q: What about the IC50 of the same cell line?
A: 10 µM

Q: How did the AUC turn out when “NCI-H526 (small cell lung carcinoma, suspension, top dose 20 µM)” was run?
A: 0.966

Q: What about the IC50 of the same cell line?
A: > 20 µM

Q: “SW1990 (pancreas, adherent, top dose 20 µM)” was tested. Which AUC did it give?
A: 0.959

Q: What about the IC50 of the same cell line?
A: > 20 µM

Q: With “VCaP (prostate, adherent, top dose 20 µM)” as the cell line, how does the AUC read?
A: 0.679

Q: And the IC50?
A: 4.04 µM

Q: With “C-33-A (cervix, adherent, top dose 20 µM)” as the cell line, how does the AUC read?
A: 0.855

Q: What about the IC50 of the same cell line?
A: 16 µM

Q: For “NCI-H1688 (small cell lung carcinoma, adherent, top dose 20 µM)”, which AUC is on record?
A: 0.928

Q: What about the IC50 of the same cell line?
A: > 20 µM

Q: “PANC-08-13 (pancreas, adherent, top dose 20 µM)” was tested. Which AUC did it give?
A: 0.802

Q: What about the IC50 of the same cell line?
A: 13.3 µM

Q: With “A4-Fuk (B-cell lymphoma, suspension, top dose 20 µM)” as the cell line, how does the AUC read?
A: 0.878

Q: What about the IC50 of the same cell line?
A: > 20 µM

Q: For “NCI-H2172 (non-small cell lung carcinoma, adherent, top dose 20 µM)”, which AUC is on record?
A: 0.979

Q: What about the IC50 of the same cell line?
A: > 20 µM

Q: Which results are given for “P30-OHK (lymphoblastic leukaemia, suspension, top dose 20 µM)”?
A: AUC: 0.869; IC50: 13.5 µM

Q: “DMS-273 (small cell lung carcinoma, adherent, top dose 20 µM)” was tested. Which AUC did it give?
A: 0.979

Q: What about the IC50 of the same cell line?
A: > 20 µM

Q: “H3255 (lung adenocarcinoma, adherent, top dose 20 µM)” was tested. Which AUC did it give?
A: 0.936

Q: And the IC50?
A: > 20 µM

Q: Which results are given for “RH-1 (rhabdomyosarcoma, adherent, top dose 20 µM)”?
A: AUC: 0.832; IC50: 9.94 µM

Q: Which AUC does the source give for “UACC-257 (melanoma, adherent, top dose 20 µM)” here?
A: 0.469

Q: And the IC50?
A: 1.01 µM

Q: “NCI-H630 (large intestine, adherent, top dose 20 µM)” was tested. Which AUC did it give?
A: 0.952

Q: And the IC50?
A: > 20 µM

Q: With “MDA-MB-361 (breast, adherent, top dose 20 µM)” as the cell line, how does the AUC read?
A: 0.89

Q: And the IC50?
A: > 20 µM

Q: Which AUC does the source give for “U-87-MG (glioma, adherent, top dose 20 µM)” here?
A: 0.957

Q: And the IC50?
A: > 20 µM

Q: With “KU812 (chronic myeloid leukaemia, suspension, top dose 20 µM)” as the cell line, how does the AUC read?
A: 0.876

Q: What about the IC50 of the same cell line?
A: 16.9 µM

Q: Which results are given for “PA-TU-8902 (pancreas, adherent, top dose 20 µM)”?
A: AUC: 0.533; IC50: 1.57 µM

Q: Which results are given for “SCC-9 (head and neck, adherent, top dose 20 µM)”?
A: AUC: 0.544; IC50: 1.7 µM

Q: What does the source list for “OCI-AML3 (acute myeloid leukaemia, suspension, top dose 20 µM)”?
A: AUC: 0.193; IC50: 0.182 µM

Q: What does the source list for “HD-MY-Z (Hodgkin lymphoma, adherent, top dose 20 µM)”?
A: AUC: 0.881; IC50: > 20 µM

Q: SCH (stomach, adherent, top dose 20 µM) was tested. Which AUC did it give?
A: 0.988

Q: What about the IC50 of the same cell line?
A: > 20 µM

Q: “HT-115 (large intestine, adherent, top dose 20 µM)” was tested. Which AUC did it give?
A: 0.969

Q: And the IC50?
A: > 20 µM

Q: What does the source list for “SW962 (urogenital system, adherent, top dose 20 µM)”?
A: AUC: 0.968; IC50: > 20 µM

Q: What does the source list for “PL-21 (acute myeloid leukaemia, suspension, top dose 20 µM)”?
A: AUC: 0.456; IC50: 0.928 µM

Q: Which results are given for “SNU-175 (large intestine, suspension, top dose 20 µM)”?
A: AUC: 0.87; IC50: 16.7 µM

Q: For “EC-GI-10 (oesophagus, adherent, top dose 20 µM)”, which AUC is on record?
A: 0.983

Q: And the IC50?
A: > 20 µM

Q: For “H2795 (mesothelioma, adherent, top dose 20 µM)”, which AUC is on record?
A: 0.676

Q: And the IC50?
A: 3.85 µM

Q: With “JHOS-2 (ovary, adherent, top dose 20 µM)” as the cell line, how does the AUC read?
A: 0.889

Q: What about the IC50 of the same cell line?
A: > 20 µM

Q: What does the source list for “SK-MEL-30 (melanoma, adherent, top dose 20 µM)”?
A: AUC: 0.258; IC50: 0.242 µM

Q: Which results are given for “D-336MG (glioma, adherent, top dose 20 µM)”?
A: AUC: 0.912; IC50: > 20 µM

Q: Which AUC does the source give for “HEL (acute myeloid leukaemia, semi-adherent, top dose 20 µM)” here?
A: 0.883

Q: What about the IC50 of the same cell line?
A: 15.2 µM

Q: For “23132-87 (stomach, adherent, top dose 20 µM)”, which AUC is on record?
A: 0.868

Q: And the IC50?
A: 19.4 µM

Q: JHH-2 (liver, adherent, top dose 20 µM) was tested. Which AUC did it give?
A: 0.95

Q: And the IC50?
A: > 20 µM

Q: How did the AUC turn out when “LCLC-97TM1 (large cell lung carcinoma, adherent, top dose 20 µM)” was run?
A: 0.81

Q: What about the IC50 of the same cell line?
A: 11.8 µM

Q: How did the AUC turn out when “SBC-1 (small cell lung carcinoma, suspension, top dose 20 µM)” was run?
A: 0.981

Q: What about the IC50 of the same cell line?
A: > 20 µM

Q: Which results are given for “SU8686 (pancreas, adherent, top dose 20 µM)”?
A: AUC: 0.794; IC50: 10.5 µM

Q: Which AUC does the source give for “CHSA0108 (chondrosarcoma, adherent, top dose 20 µM)” here?
A: 0.897

Q: What about the IC50 of the same cell line?
A: > 20 µM

Q: How did the AUC turn out when OVISE (ovary, adherent, top dose 20 µM) was run?
A: 0.736

Q: What about the IC50 of the same cell line?
A: 7.49 µM

Q: For “KMRC-1 (kidney, adherent, top dose 20 µM)”, which AUC is on record?
A: 0.951

Q: And the IC50?
A: > 20 µM

Q: How did the AUC turn out when “H2369 (mesothelioma, adherent, top dose 20 µM)” was run?
A: 0.969

Q: What about the IC50 of the same cell line?
A: > 20 µM

Q: Which results are given for “P31-FUJ (acute myeloid leukaemia, suspension, top dose 20 µM)”?
A: AUC: 0.989; IC50: > 20 µM

By IC50 is meant the dose at which the fit gives 50% viability; fits outside the tested doses are given as limits. AUC is the area under the same curve over the 256-fold range up to the top dose, as a fraction: 1 means no effect, lower means more sensitive. Any top dose called inferred is not printed in the source and was worked back from the curve model.
